Measured values reported in PubChem BioAssay AID1768 (National Center for Advancing Translational Sciences (NCATS), 2009).
Hit rate of the full screen: of about 270,000 compounds, about 620 (0.23%) were called active. This list was built around the results that the source calls inconclusive (neither active nor inactive); the mix of calls is not that of the screen. Calls follow the shape of the dose curve; as a rule, active = well fitted inhibition curve with a large enough effect in the polarisation, with a control signal flat (not every such curve was filed as active); inconclusive = small, poorly fitted or top-dose-only effect, or effect the other way, or a change in a side signal; inactive = no such curve, though single readings can be large or run the other way; the % refers to the polarisation. Potencies beside an inconclusive call are fits to weak or partial responses and may not hold up. “Side channel” marks fits to a control or component signal instead of the main read-out.
For FP activity change, negative = inhibition in this document: % of control where 0% means no effect.
Potency is read from the fitted curve at half-maximal effect; tags tell the direction and shape of the fitted curve or compound fluorescence and quenching.

What follows are compounds tested against Menin (Homo sapiens) (UniProt O00255) (assay: qHTS Assay for Inhibitors Targeting the Menin-MLL Interaction in MLL Related Leukemias: Competition With Texas Red Labeled MLL-derived Mutant Peptide). Conditions: fluorescence polarization; FP activity change, negative = inhibition: at 61.6 µM (top of the series).
Sequence of UniProt O00255 (O00255 whole entry, looked up): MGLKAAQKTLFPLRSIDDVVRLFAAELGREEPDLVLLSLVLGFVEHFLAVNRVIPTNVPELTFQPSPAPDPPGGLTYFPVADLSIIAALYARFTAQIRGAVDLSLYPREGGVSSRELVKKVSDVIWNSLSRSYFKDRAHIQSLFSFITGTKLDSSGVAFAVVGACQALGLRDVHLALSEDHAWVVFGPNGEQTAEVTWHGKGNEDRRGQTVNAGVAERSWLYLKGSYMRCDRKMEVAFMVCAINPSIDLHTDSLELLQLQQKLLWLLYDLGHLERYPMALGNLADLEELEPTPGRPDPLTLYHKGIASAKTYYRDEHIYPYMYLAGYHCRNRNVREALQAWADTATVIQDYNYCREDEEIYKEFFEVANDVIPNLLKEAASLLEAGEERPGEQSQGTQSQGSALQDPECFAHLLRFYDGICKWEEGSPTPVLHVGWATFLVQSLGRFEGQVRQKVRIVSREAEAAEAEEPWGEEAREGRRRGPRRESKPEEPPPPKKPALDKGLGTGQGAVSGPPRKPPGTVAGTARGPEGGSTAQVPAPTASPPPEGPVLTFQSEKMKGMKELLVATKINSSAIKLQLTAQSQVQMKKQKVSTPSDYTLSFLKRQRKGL
With CCOCCCNC(=O)c1cc2c(s1)-c1ccccc1SC2 the “FP activity change, negative = inhibition” value was inactive: 14.1%. For CCOc1ccc(C(C(=O)NC(C)(C)C)N(CCOC)C(=O)CCC(=O)Nc2ccccn2)cc1 (stereo not drawn), the “FP activity change, negative = inhibition” value was inactive: -13.8%. In the case of O=C(CSc1nnnn1-c1ccccc1F)Nc1nc2ccccc2s1, the Potency is reported as inconclusive: 39.8 µM [fluorescent, side channel, single point]. For COc1cccc(-c2ccc(C#N)c(SCC(=O)NCCc3ccccc3)n2)c1, the Potency was inconclusive: 39.8 µM [fluorescent, side channel, single point]. With O=C(Nc1nc(-c2ccc3ccccc3c2)cs1)c1ccc(N2C(=O)CCC2=O)cc1 the Potency was inconclusive: 0.708 µM [quencher, side channel, full curve, poor fit]. With Cc1ccc(N=C2NC(=O)CC(C(=O)Nc3ccc4c(c3)OCO4)S2)cc1 (stereo not drawn) the Potency was inconclusive: 35.5 µM [fluorescent, side channel, single point]. In the case of CCOc1cc(/C=C\c2nc(O)c([N+](=O)[O-])c(=O)[nH]2)ccc1OC(C)C, the Potency is reported as inconclusive: 17.8 µM [quencher, side channel, single point]. For CCCCn1c(O)c(N=NC(=O)c2ccccc2NS(=O)(=O)c2cccs2)c2ccccc21, the Potency was inconclusive: 22.4 µM [quencher, side channel, single point]. CC(OC(=O)CCN1C(=O)c2cccc([N+](=O)[O-])c2C1=O)C(=O)Nc1cc(Cl)cc(Cl)c1 (stereo not drawn) was tested, and the Potency was inconclusive: 8.91 µM [quencher, full curve]. In the case of O=C(Nc1nnc(Cc2ccccc2F)s1)Nc1ccccc1F, the “FP activity change, negative = inhibition” value is reported as inactive: -19.4%. With Nc1ccc(C(=O)Nc2ccc(OC(F)(F)C(F)F)c(NC(=O)c3ccc(N)cc3)c2)cc1 the Potency was inconclusive: 10 µM [quencher, side channel, partial curve]. With CCOC(=O)C1=C(C)NC(=S)NC1c1ccc(-c2cccc(Cl)c2C)o1 (stereo not drawn) the Potency was inconclusive: 11.2 µM [inhibitor, partial curve]. CS(=O)(=O)N1CCN(c2ccccc2NC(=O)Cc2ccccc2)CC1 was tested, and the “FP activity change, negative = inhibition” value was inactive: -12.6%. In the case of C/C(=N\NS(=O)(=O)c1ccccc1)c1cccc(NC(=O)c2cccc(Cl)c2)c1, the Potency is reported as inconclusive: 14.1 µM [quencher, side channel, partial curve]. With O=C(N/N=C/c1ccccc1[N+](=O)[O-])C(=O)N1CCCC1 the Potency was inconclusive: 35.5 µM [fluorescent, side channel, single point]. For O=C(NC(=S)NCCC1=CCCCC1)c1ccccc1Br, the Potency was inconclusive: 15.8 µM [quencher, side channel, partial curve]. With O=C(O)c1cccc(NC(=S)NC(=O)c2ccc(-c3ccc(Cl)cc3)o2)c1 the Potency was inconclusive: 28.2 µM [quencher, side channel, single point]. In the case of O=C(Cc1cn(Cc2cccc(Cl)c2)c2ccccc12)N1CCCCCC1, the Potency is reported as inconclusive: 35.5 µM [fluorescent, side channel, single point]. For O=C(CNCC1CCCCC1)Nc1ccccc1N1CCCCC1, the Potency was inconclusive: 3.16 µM [fluorescent, partial curve]. With CCCCCOc1ccc(CSc2n[nH]c(C)n2)cc1 the Potency was inconclusive: 12.6 µM [fluorescent, side channel, partial curve]. In the case of O=C(NCc1ccc(F)cc1)N1CCc2ccccc2C1, the Potency is reported as inconclusive: 5.01 µM [inhibitor, partial curve]. COc1cc(C)nc(-n2nc(C)cc2OC)n1 was tested, and the Potency was inconclusive: 12.6 µM [inhibitor, partial curve]. CCOc1cc(/C=C2/SC(=S)N(CC3CCCO3)C2=O)ccc1O (stereo not drawn) was tested, and the Potency was inconclusive: 22.4 µM [fluorescent, side channel, partial curve]. With CC(C)(C)C(=O)/C(C#N)=C/c1ccc(O)cc1 the Potency was inconclusive: 25.1 µM [quencher, side channel, single point]. For Cc1ccc(Cc2cnc(NC(=O)c3ccco3)s2)cc1, the Potency was inconclusive: 39.8 µM [quencher, side channel, single point]. With COc1cccc(C(C#N)N2CCCCC2)c1O (stereo not drawn) the “FP activity change, negative = inhibition” value was inactive: 2.5%. With CC1CCCCN1CCCNc1c(C=O)c(=O)[nH]c2ccccc12 (stereo not drawn) the Potency was inconclusive: 39.8 µM [inhibitor, single point]. For COC(=O)c1cccc(NC(=O)c2cc3ccccc3o2)c1, the Potency was inconclusive: 11.2 µM [quencher, side channel, partial curve]. In the case of Cc1cc(C)n(-c2cc(N3CCN(C(=O)c4cccc(Br)c4)CC3)ccc2[N+](=O)[O-])n1, the Potency is reported as inconclusive: 5.01 µM [inhibitor, full curve]. In the case of O=C(Nc1cnn(Cc2ccc(F)cc2)c1)c1cc(-c2cccs2)on1, the Potency is reported as inconclusive: 31.6 µM [fluorescent, side channel, single point]. With COc1ccc(CNc2nc(Cl)c(C#N)s2)cc1 the “FP activity change, negative = inhibition” value was inactive: 28.6%. With CCCCCNc1nc2ccccc2nc1NS(=O)(=O)c1cccs1 the Potency was inconclusive: 28.2 µM [quencher, side channel, single point]. COC(=O)c1cccc(NC(=O)Nc2ccc(Cl)c(Cl)c2)c1 was tested, and the Potency was inconclusive: 25.1 µM [quencher, side channel, partial curve]. CN(CC(=O)Nc1nc2ccccc2s1)S(=O)(=O)c1ccc(Cl)cc1 was tested, and the Potency was inconclusive: 39.8 µM [quencher, side channel, single point]. CC(C)(C)NC(=O)C(c1ccsc1)N(CCc1ccccc1)C(=O)Cn1nnc2ccccc21 (stereo not drawn) was tested, and the Potency was inconclusive: 8.91 µM [fluorescent, side channel, full curve]. For NC(=O)c1c(C(F)(F)F)cc(-c2ccccc2)nc1NCCO, the “FP activity change, negative = inhibition” value was inactive: 23.9%. With COc1ccccc1C(C)N(C)Cc1nc(COc2ccccc2)no1 (stereo not drawn) the Potency was inconclusive: 17.8 µM [fluorescent, side channel, partial curve]. CN(Cc1ccco1)c1ncnc2ccc(-c3cccnc3)cc12 was tested, and the Potency was inconclusive: 15.8 µM [inhibitor, partial curve].
